# Reference: patent US20250034277A1 (SUZHOU ALPHAMAB, published 2025)
# B1: KN060 (bispecific antibody)
# chain: QVQLVESGGGSVQAGGSLRLSCAASGHTYSSNYCMAWFRQAPGKEREGVAAIYSDGSTSYADSVKGRFTISKDNSKNTLYLQMNSLRAEDTAVYYCAATAYEGSWTGKQPLCLLYEYTYWGQGTLVTVSSGAPQVQLVESGGGSVQAGGSLRLSCTASEFTFDDSDMAWYRQAPGNECELVSTITSDGGTYYADSVKGRFTISQDNSKNTMYLQMNSLRAEDTAVYYCAADQWGSAEGDCTSSYPGGYWGQGTLVTVSSGS[… human IgG1 Fc with changes …]
# notes: also called anti-FXI bispecific single-domain antibody fusion protein; KN060 stock solution 201113DS
# Experiments:
# hApple-Chis = target: T1, hApple-Chis (human, UniProt P03951 partial chain); test: BLI (Octet K2), KN060 captured on the biosensor, hApple-Chis at 5 concentrations, 1:1 model
# T1 construct: range 1-387; also called hApple-Chis protein; human Apple domain; not shown: C-terminal His tag (Chis)
# [1] = target: T2, FXI in standard human plasma (human, UniProt P03951); test: cell-based or functional assay
# FXI in rabbit plasma [2] = target: FXI in rabbit plasma (rabbit); test: cell-based or functional assay
# rabFXI-Apple-Chis = target: T3, rabFXI-Apple-Chis (rabbit); test: BLI, KN060 on Protein A biosensor, rabFXI-Apple-Chis 50-3.125 nM, 1:1 model
# T3 construct: domain: Apple; also called rabbit FXI-apple protein; rabbit FXI
# cynoFXI-Apple-Chis = target: T4, cynoFXI-Apple-Chis (cynomolgus); test: BLI, KN060 on Protein A biosensor, cynoFXI-Apple-Chis 50-3.125 nM, 1:1 model
# T4 construct: domain: Apple; also called cynomolgus FXI-apple protein; cynomolgus FXI
# [3] = target: T2, FXI in standard human plasma; test: cell-based or functional assay; remark: listed apart in the source
# [4] = target: T2, FXI in standard human plasma; test: cell-based or functional assay; remark: listed apart in the source
# FXI in rat plasma = FXI in rat plasma (rat); test: cell-based or functional assay
# FXI in cynomolgus plasma = FXI in cynomolgus plasma (cynomolgus); test: cell-based or functional assay
# human FXIa = target: T5, human FXIa (human, UniProt P03951 partial chain; P03951 partial chain); test: BLI, KN060 on Protein A biosensor, hFXIa 400-25 nM, 1:1 model
# T5 construct: also called hFXIa
# hFXI-CHis protein = target: T6, hFXI-CHis protein (human, UniProt P03951); test: BLI, KN060 on Protein A biosensor, hFXI-Chis 50-3.125 nM, 1:1 model
# T6 construct: FXI is said in the background to be a dimer; nothing is said of the construct; also called human FXI; human FXI factor protein; not shown: C-terminal His tag (CHis)
# FXI in rabbit plasma [5] = target: FXI in rabbit plasma (rabbit); test: cell-based or functional assay; remark: listed apart in the source
# FXI in monkey plasma = FXI in monkey plasma (monkey); test: cell-based or functional assay
binder,measurement,setting,value
B1,Kd,hApple-Chis,< 1 pM
same,APTT ratio in standard human plasma at 0.1 µg/mL,[1],1 ratio
same,APTT ratio in standard human plasma at 0.5 µg/mL,[1],1.12 ratio
same,APTT ratio in standard human plasma at 1 µg/mL,[1],1.3 ratio
same,APTT ratio in standard human plasma at 2 µg/mL,[1],2.19 ratio
same,APTT ratio in standard human plasma at 5 µg/mL,[1],3.53 ratio
same,APTT ratio in standard human plasma at 10 µg/mL,[1],3.71 ratio
same,whole blood APTT in rabbit plasma at 0.1 µg/mL,FXI in rabbit plasma [2],15.3
same,whole blood APTT in rabbit plasma at 0.5 µg/mL,FXI in rabbit plasma [2],16.2
same,whole blood APTT in rabbit plasma at 1 µg/mL,FXI in rabbit plasma [2],17.1
same,whole blood APTT in rabbit plasma at 2 µg/mL,FXI in rabbit plasma [2],23.6
same,whole blood APTT in rabbit plasma at 5 µg/mL,FXI in rabbit plasma [2],35.1
same,whole blood APTT in rabbit plasma at 10 µg/mL,FXI in rabbit plasma [2],36.1
same,Kd,rabFXI-Apple-Chis,183 pM
same,koff,rabFXI-Apple-Chis,5.82e-05 s⁻¹
same,kon,rabFXI-Apple-Chis,317000 M⁻¹ s⁻¹
same,koff,cynoFXI-Apple-Chis,4.82e-08 s⁻¹
same,kon,cynoFXI-Apple-Chis,318000 M⁻¹ s⁻¹
same,IC50 value (ng/mL) of the inhibitory effect on FXI activity,[3],650 ng/mL
same,whole blood APTT in standard human plasma at 0.1 µg/mL,[4],22.9
same,whole blood APTT in standard human plasma at 0.5 µg/mL,[4],25.8
same,whole blood APTT in standard human plasma at 1 µg/mL,[4],30
same,whole blood APTT in standard human plasma at 2 µg/mL,[4],50.4
same,whole blood APTT in standard human plasma at 5 µg/mL,[4],81.1
same,APTT ratio in rat plasma at 0.5 µg/mL,FXI in rat plasma,0.94 ratio
same,APTT ratio in rat plasma at 1 µg/mL,FXI in rat plasma,0.97 ratio
same,APTT ratio in rat plasma at 2 µg/mL,FXI in rat plasma,1.07 ratio
same,APTT ratio in rat plasma at 5 µg/mL,FXI in rat plasma,1.55 ratio
same,APTT ratio in rat plasma at 10 µg/mL,FXI in rat plasma,1.67 ratio
same,APTT ratio in rat plasma at 30 µg/mL,FXI in rat plasma,1.76 ratio
same,APTT ratio in cynomolgus plasma at 0.1 µg/mL,FXI in cynomolgus plasma,1 ratio
same,APTT ratio in cynomolgus plasma at 0.5 µg/mL,FXI in cynomolgus plasma,1.13 ratio
same,APTT ratio in cynomolgus plasma at 1 µg/mL,FXI in cynomolgus plasma,1.36 ratio
same,APTT ratio in cynomolgus plasma at 2 µg/mL,FXI in cynomolgus plasma,2.73 ratio
same,APTT ratio in cynomolgus plasma at 5 µg/mL,FXI in cynomolgus plasma,3.3 ratio
same,APTT ratio in cynomolgus plasma at 10 µg/mL,FXI in cynomolgus plasma,3.38 ratio
same,Kd,human FXIa,1880 pM
same,koff,human FXIa,0.00015 s⁻¹
same,kon,human FXIa,80100 M⁻¹ s⁻¹
same,Kd,hFXI-CHis protein,674 pM
same,APTT ratio in rabbit plasma at 0.1 µg/mL,FXI in rabbit plasma [5],0.83 ratio
same,APTT ratio in rabbit plasma at 0.5 µg/mL,FXI in rabbit plasma [5],0.88 ratio
same,APTT ratio in rabbit plasma at 1 µg/mL,FXI in rabbit plasma [5],0.93 ratio
same,APTT ratio in rabbit plasma at 2 µg/mL,FXI in rabbit plasma [5],1.28 ratio
same,APTT ratio in rabbit plasma at 5 µg/mL,FXI in rabbit plasma [5],1.91 ratio
same,APTT ratio in rabbit plasma at 10 µg/mL,FXI in rabbit plasma [5],1.96 ratio
same,whole blood APTT in monkey plasma at 0.1 µg/mL,FXI in monkey plasma,20.8
same,whole blood APTT in monkey plasma at 0.5 µg/mL,FXI in monkey plasma,23.6
same,whole blood APTT in monkey plasma at 1 µg/mL,FXI in monkey plasma,28.5
same,whole blood APTT in monkey plasma at 2 µg/mL,FXI in monkey plasma,57
same,whole blood APTT in monkey plasma at 5 µg/mL,FXI in monkey plasma,69
